Here are results for 86 compounds from PubChem BioAssay AID1645887 (National Center for Advancing Translational Sciences (NCATS), 2021).

Structures are written as SMILES. Where “and” joins values, the source holds several entries; their conditions need not be identical. Equal values may be shown once. In all, about 16,000 compounds went through this assay and about 40 (0.2%) were called active. Not shown: some 1% with an inconclusive outcome. Calls come from the whole dose curve; as a rule, active = well fitted activation curve with a large enough effect; inconclusive = small, poorly fitted or top-dose-only effect, or another doubt; inactive = no such curve, though single readings can be large or run the other way. The list shows a part of the results.
% is set by controls: 0 for no effect and ±100 for the full control effect.

Sequence of UniProt Q8WZA2 (Q8WZA2 whole entry, looked up): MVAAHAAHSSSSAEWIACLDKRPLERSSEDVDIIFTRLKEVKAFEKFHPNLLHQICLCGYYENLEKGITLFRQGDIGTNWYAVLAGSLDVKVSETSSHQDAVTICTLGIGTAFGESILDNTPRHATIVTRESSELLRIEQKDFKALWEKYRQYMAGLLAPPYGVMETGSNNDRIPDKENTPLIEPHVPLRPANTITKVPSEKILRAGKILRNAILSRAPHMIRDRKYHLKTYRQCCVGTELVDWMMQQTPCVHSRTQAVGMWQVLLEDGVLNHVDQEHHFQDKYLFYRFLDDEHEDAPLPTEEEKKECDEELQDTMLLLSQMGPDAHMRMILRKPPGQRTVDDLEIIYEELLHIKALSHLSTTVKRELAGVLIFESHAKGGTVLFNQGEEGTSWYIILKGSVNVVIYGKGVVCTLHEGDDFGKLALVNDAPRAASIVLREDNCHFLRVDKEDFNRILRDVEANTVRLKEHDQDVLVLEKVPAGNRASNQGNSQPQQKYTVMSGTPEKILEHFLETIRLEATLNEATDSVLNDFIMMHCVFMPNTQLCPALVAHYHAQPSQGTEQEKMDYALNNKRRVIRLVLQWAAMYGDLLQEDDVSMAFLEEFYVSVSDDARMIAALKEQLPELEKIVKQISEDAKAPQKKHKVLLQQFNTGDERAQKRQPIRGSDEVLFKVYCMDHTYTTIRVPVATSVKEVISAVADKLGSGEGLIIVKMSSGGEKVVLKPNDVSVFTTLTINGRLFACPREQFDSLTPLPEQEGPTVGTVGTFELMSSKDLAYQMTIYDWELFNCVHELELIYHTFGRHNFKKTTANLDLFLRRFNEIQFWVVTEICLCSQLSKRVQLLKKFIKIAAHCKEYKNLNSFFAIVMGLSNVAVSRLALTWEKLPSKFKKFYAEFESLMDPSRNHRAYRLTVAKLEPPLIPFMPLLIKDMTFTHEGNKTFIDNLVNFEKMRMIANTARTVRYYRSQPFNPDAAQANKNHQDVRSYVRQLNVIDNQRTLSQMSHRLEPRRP

The test has as its target Rap guanine nucleotide exchange factor 4 (Homo sapiens) (UniProt Q8WZA2). In words: Validation qHTS for agonist of cAMP-regulated guanine nucleotide exchange factor 4 (EPAC2).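 Note: exchange makes BODIPY-GDP fluorescence drop when released from Rap1B; series mostly up to about 150 µM.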 Conditions: EPAC2 Rap1B BODIPY-GDP exchange, fluorescence; activation: hits give high values. In a few lines:
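Fluorescent exchange assay: 100 nM EPAC2 with 250 nM RAP1B-BODIPY-GDP and 50 uM GDP; compound added, 5 min at room temperature, then read (ex 480/em 540 nm) every 5 min for 30 min. Normalized to 6.5 mM cAMP agonist control.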
Consider `COc1ccccc1CN1CCCC2(CCN(C(C)=O)CC2)C1`, for which the activation was inactive: -6.88%.

On to `CCCCCCCCCCCCCCCCCCNC(=O)OCC(COP(=O)([O-])OCC[n+]1ccsc1)OC` (stereo unspecified), for which the activation is inactive: -37.5%.

As to `Cc1ncc(CO)c(CN)c1O`, the activation is inactive: 0.776%.

`O=C(c1ccccc1)c1ccccc1`: the activation was inactive: -7.37%.

Take `COc1cccc(Cn2c(=O)c(-c3cccc(Cl)c3)nc3cncnc32)c1`: the activation was inactive: -6.61%.

Turning to `O=C1Nc2ccc(Cl)cc2[C@@](C#CC2CC2)(C(F)(F)F)O1`, the activation was inactive: -26.5%.

Turning to `C=CCN1[C@@H](C(C)C)COCCS1(=O)=O`, the activation is inactive: -14.3%.

Take `Cc1cc(=O)c2c(O)cc(O)c(C)c2o1`: the activation is inactive: 3.27%.

Turning to `O=C(NC[C@@H]1CCCN2CCCC[C@H]12)c1cnn(-c2nccc(-c3ccco3)n2)c1C1CC1`, the activation is inactive: -13%.

Consider `O=C(c1cccc(F)c1)N1CCC2(CCCN(Cc3cc(C(F)(F)F)cc(C(F)(F)F)c3)C2)CC1`, for which the activation is inactive: 1.39%.

Take `c1ccc2sc(N3CCN(Cc4ccc5c(c4)OCO5)CC3)nc2c1`: the activation was inactive: -1.49% and inactive: 12.1%.

`N#CCCn1c(=O)c(-c2cc(F)cc(F)c2)nc2cnc(Oc3ccccc3)nc21`: the activation is inactive: -3.24%.

In the case of `Nc1ccc(C(=O)O)c(O)c1`, the activation is inactive: -14% and inactive: 9.02%.

As to `CN(Cc1ccco1)c1ncncc1-c1ccc2c(c1)OCO2`, the activation is inactive: 3.53%.

In the case of `CC(C)NC(=O)N1CC[C@@]2(CCCN(C(=O)c3cccn3C)C2)C1`, the activation is inactive: 2.34%.

On to `Cc1c(CCO)sc[n+]1CC(=O)c1ccccc1`, for which the activation is inactive: -25.7%.

In the case of `CC(O)(COc1ccccc1)c1ccc2c(c1)CN(C/C=C/c1ccco1)CCO2` (stereo unspecified), the activation was inactive: -13.2%.

Consider `NCCCS(=O)(=O)O`, for which the activation is inactive: -14.1% and inactive: -24.5%.

In the case of `Cc1cnc(C)c(-c2cccc3c2OC(CNC(=O)/C=C/c2ccncc2)C3)n1` (stereo unspecified), the activation is inactive: 5.86%.

As for `O=c1cc(/C=C/c2ccc([N+](=O)[O-])cc2)c2ccccc2[nH]1`, the activation is inactive: -9.19%.

Consider `O=C(c1ccco1)N1CCC2(CCCN(c3ccccn3)C2)CC1`, for which the activation was inactive: -10.7%.

For the compound `CC(C)C[C@@H](CN=[N+]=[N-])N1CCN(Cc2ccccc2)CCC1=O`, the activation is inactive: -12.9%.

Take `O=C(O)C(Cc1cc(I)c(O)c(I)c1)c1ccccc1` (stereo unspecified): the activation is inactive: -0.77%.

Regarding `CC(C)CCC[C@@H](C)[C@H]1CC[C@H]2[C@@H]3CC[C@@H]4C[C@H](O)CC[C@]4(C)[C@H]3CC[C@]12C`, the activation is inactive: -0.92%.

In the case of `C=CCN1CCc2cc(O)c(O)cc2C(c2ccccc2)C1` (stereo unspecified), the activation is inactive: -7.96%.

With `c1ccc2c(NC3CCNCC3)nc(-c3ccoc3)nc2c1`, the activation was inactive: -18.5%.

Regarding `O=C(C[n+]1cccc(Br)c1)c1ccc(I)cc1`, the activation is inactive: -19.1%.

On to `Nc1ncnc2nc[nH]c12`, for which the activation was inactive: 1.63%.

As to `O=C(CN1Cc2ccccc2OC(c2ccsc2)C1)NCc1ccc2c(c1)OCO2` (stereo unspecified), the activation is inactive: -3.16%.

Take `O=C(NCCCCCCNC(=O)ON=C1CCCCC1)ON=C1CCCCC1`: the activation is inactive: -1.9%.

As for `COc1ccccc1C1CN(Cc2cnn(C)c2)Cc2ccccc2O1` (stereo unspecified), the activation was inactive: -14.7%.

Take `C=CCCCCCCCCCCCC(O)CC(O)CO` (stereo unspecified) (tested in a mixture with another compound): the activation was inactive: -54.4%.

Take `C[N@+]12CCCC[C@@H]1CCC(=C(c1cccs1)c1cccs1)C2`: the activation was inactive: -8.47%.

Consider `Nc1nc(/C(=C/CC(=O)O)C(=O)N[C@@H]2C(=O)N3C(C(=O)O)=CCS[C@H]23)cs1`, for which the activation was inactive: -7.71%.

As for `O=C(Oc1ccccc1)N1CCC[C@@]2(CCN(c3ccncc3)C2)C1`, the activation was inactive: 0.271%.

For the compound `CCc1cc(Cl)c(OC)c(C(=O)NC[C@@H]2CCCN2CC)c1O`, the activation was inactive: -3.37% and inactive: -10% and inactive: -5.33%.

For `COCCn1c(=O)c(-c2cccc(Cl)c2)nc2cncnc21`, the activation was inactive: -12.4%.

`CN(C)CCOC(=O)C(c1ccccc1)C1(O)CCCC1` (stereo unspecified): the activation is inactive: 9.63%.

`C[N+]1(C)C2CC(OC(=O)[C@H](CO)c3ccccc3)CC1C1OC12` (stereo partly specified): the activation was inactive: -65% and inactive: -35.6%.

Consider `CCCCN1CC[C@H]2C=CC[C@@H](C(=O)NCCc3ccccc3)[C@H]2C1=O`, for which the activation was inactive: -16.7%.

For `Cc1cnc(-n2ncc(C(=O)NCC(C)(C)N3CCOCC3)c2C(C)C)nc1-c1ccc(F)cc1`, the activation was inactive: -1.78%.

In the case of `COc1ncc2nc(-c3ccc(Cl)cc3)c(=O)n(Cc3cccs3)c2n1`, the activation was inactive: 3.09%.

On to `O=C(O)c1ccc2c(c1)OCO2`, for which the activation is inactive: -21.8%.

As to `COc1ccc(-n2c(=O)c(-c3ccc(F)c(F)c3)nc3cncnc32)cc1`, the activation was inactive: -14.3%.

For the compound `O=C(/C=C/c1ccccc1)c1ccc(O)cc1`, the activation is inactive: -8.85%.

Turning to `CN(Cc1ccco1)c1cc(-c2ccccc2Cl)ncn1`, the activation is inactive: -2.47%.

In the case of `COc1ccc(CN2CC[C@H]3C=CC[C@@H](C(=O)Nc4ccc(Cl)c(C(F)(F)F)c4)[C@H]3C2=O)cc1OC`, the activation was inactive: -25.8%.

With `Nc1[nH]c(=O)ncc1F`, the activation was inactive: 1.38%.

As for `CCC(=O)O[C@]1(C(=O)SCF)[C@H](C)C[C@H]2[C@@H]3C[C@H](F)C4=CC(=O)C=C[C@]4(C)[C@@]3(F)[C@@H](O)C[C@@]21C`, the activation was inactive: -14.1%.

As to `CC1(C)S[C@@H]2[C@H](NC(=O)COc3ccccc3)C(=O)N2[C@@H]1C(=O)OCc1cccc2cccnc12`, the activation was inactive: -13.4%.

As for `CCCCCCCCN1[C@@H](CC(C)=O)c2ccc(/C=C/C(C)=O)cc2S1(=O)=O`, the activation is inactive: -29%.

On to `Nc1ccn([C@H]2C[C@H](O)[C@@H](CO)O2)c(=O)n1`, for which the activation is inactive: -7.69%.

Turning to `Cc1oc(-c2ccccc2NC(=O)C2CCCO2)nc1CNC(=O)c1cc(F)c(F)cc1F` (stereo unspecified), the activation is inactive: -7.07%.

Turning to `O=C(O)CN(CCN(CC(=O)O)CC(=O)O)CC(=O)O`, the activation is inactive: -8.43% and inactive: -15.6%.

As for `CC(C)(C)[C@H]1CCC(=O)N([C@H](CSc2ccccc2)Cc2ccccc2)CC1`, the activation is inactive: -28.5%.

Regarding `COc1ccc2[nH]cc(CCNc3ccnc(-c4cccc(C#N)c4)n3)c2c1`, the activation was inactive: 5.11%.

As for `COc1ccccc1CN1CCC2(CC1)CCN(C(C)=O)CC2`, the activation was inactive: -0.0278%.

In the case of `Clc1cccc(Cl)c1NC1=NCCN1`, the activation was inactive: -8.88% [middle of 4 runs].

With `CC(=O)NCCNc1cc(-c2ccccc2CN(C)C)ncn1`, the activation is inactive: -3.19%.

In the case of `Cn1cccc1C(=O)N1CCC2(CCN(C(=O)Nc3ccccc3)CC2)CC1`, the activation is inactive: -10.3%.

For the compound `O=C1[C@H]2CCCC[C@H]2C(=O)N1CCCCN1CCN(c2nsc3ccccc23)CC1`, the activation is inactive: -29.3%.

Turning to `CCCCCCC[n+]1ccc(/C=C/c2c[nH]c3ccccc23)c2ccccc21`, the activation was inactive: 29%.

In the case of `C[C@]12C=CC(=O)N[C@@H]1CC[C@@H]1[C@@H]2CC[C@]2(C)[C@@H](C(=O)Nc3cc(C(F)(F)F)ccc3C(F)(F)F)CC[C@@H]12`, the activation was inactive: -4.5%.

As for `CC(C)C[C@@H](CO)N1CCNCCC1=O`, the activation is inactive: -11.4%.

On to `CCN1C(=O)c2ccccc2C1Nc1ccc(OCCN2CCCCC2)cc1` (stereo unspecified), for which the activation was inactive: -7.25%.

`Cc1ncc(CO)c(C=O)c1O`: the activation is inactive: -8.02% and inactive: 14.8%.

For `COc1ccc(-c2nc3cnc(N4CCN(C)CC4)nc3n(Cc3cccc(OC)c3)c2=O)cc1`, the activation is inactive: -2.28%.

For `COc1ncc2nc(-c3cn(C)c4ccccc34)c(=O)n(CCc3ccccc3)c2n1`, the activation was inactive: -4.01%.

For the compound `CN(C)c1ccc(N=NS(=O)(=O)O)cc1`, the activation is inactive: -15.3%.

With `Cc1cnc(CNc2ccnc(-c3ccccc3C(F)(F)F)n2)cn1`, the activation is inactive: -6.93%.

Consider `COC(=O)c1ccccc1-c1cc(C)cc2c1OC(CNC(=O)c1occc1C)C2` (stereo unspecified), for which the activation is inactive: 5.16%.

Turning to `CN1CCN(c2ncc3nc(-c4cc(F)cc(F)c4)c(=O)n(Cc4cccs4)c3n2)CC1`, the activation was inactive: -5.57%.

As for `Cc1cnc(CNc2ncncc2-c2cccc(NS(C)(=O)=O)c2)cn1`, the activation is inactive: -15.2%.

For the compound `CC(C)c1ncc([N+](=O)[O-])n1C`, the activation was inactive: -1.08%.

For `O=c1c(-c2cccs2)nc2cnc(Oc3ccccc3)nc2n1Cc1cccs1`, the activation was inactive: -7.11%.

Regarding `CCCCNC(=O)[C@@H]1CC=C[C@@H]2CCN(C3CC3)C(=O)[C@@H]21`, the activation was inactive: -24.6%.

For the compound `COC(=O)c1ccccc1-c1cc(C)cc2c1OC(CNC(=O)C1CCCO1)C2` (stereo unspecified), the activation is inactive: 3.81%.

Regarding `COc1cc2c(cc1OC)OC(C)(C)C=C2`, the activation is inactive: -18.6%.

As to `CCC1C(=O)NCCN1Cc1ccc2c(c1)CN(Cc1ccc(F)c(OC)c1)CCO2` (stereo unspecified), the activation is inactive: -5.02%.

Consider `COCCn1c(=O)c(-c2ccc(OC)cc2)nc2cnc(N3CCN(C)CC3)nc21`, for which the activation is inactive: 8.36%.

Take `CO/N=C(/C(=O)NC1C(=O)N2C(C(=O)O)=C(COC(N)=O)CSC12)c1ccco1` (stereo unspecified): the activation was inactive: -19.3%.

For `CCCS(=O)(=O)NCc1c(C)ncc2c1CCN(C(=O)c1ccc(Cl)cc1)C2`, the activation is inactive: -1.59%.

Regarding `CCCNC(=O)NS(=O)(=O)c1ccc(Cl)cc1`, the activation is inactive: -8.85% and inactive: -14.6% and inactive: -40.7%.

For the compound `CCN(CC)C(C)CN1c2ccccc2Sc2ccccc21` (stereo unspecified), the activation is inactive: 2.15% and inactive: -19.4% and inactive: -29.9%.

As for `COCCNc1ccnc(-c2ccccc2C(F)(F)F)n1`, the activation was inactive: 3.43%.

Regarding `CC(=O)O[C@]1(C(C)=O)CC[C@H]2[C@@H]3C=C(Cl)C4=CC(=O)CC[C@]4(C)[C@H]3CC[C@@]21C`, the activation is inactive: -1.01%.
